Data as given in patent US20090281028A1 (Amgen, published 2009).

Biological target: human Kv1.3 channel (human)
Assay: cell-based or functional assay

B1: Fc-L10-ShK[[…]] (CHO-derived, bivalent dimeric) (Fc fusion)
chain: not shown
IC50 of block of the outward potassium current, whole cell patch clamp: 15 pM
